Consider 57 compounds from publication PMC4336329 (PLoS ONE, 2015).

SMILES strings stand for the structures. The campaign covered roughly 310,000 compounds. About 14,000 (4.5%) showed an effect of 50% or more. The effect is printed as a negative number. Some of the results follow.
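Further: peak tail current of the secondary pulse compared with the same well before compound.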

The target of this assay is human ether-à-go-go-related gene (hERG) potassium channel (human, UniProt Q12809). The assay can be described thus: primary screen, population patch clamp on CHO cells stably expressing hERG.
Sequence of human ether-à-go-go-related gene (hERG) potassium channel (Q12809 whole entry, looked up): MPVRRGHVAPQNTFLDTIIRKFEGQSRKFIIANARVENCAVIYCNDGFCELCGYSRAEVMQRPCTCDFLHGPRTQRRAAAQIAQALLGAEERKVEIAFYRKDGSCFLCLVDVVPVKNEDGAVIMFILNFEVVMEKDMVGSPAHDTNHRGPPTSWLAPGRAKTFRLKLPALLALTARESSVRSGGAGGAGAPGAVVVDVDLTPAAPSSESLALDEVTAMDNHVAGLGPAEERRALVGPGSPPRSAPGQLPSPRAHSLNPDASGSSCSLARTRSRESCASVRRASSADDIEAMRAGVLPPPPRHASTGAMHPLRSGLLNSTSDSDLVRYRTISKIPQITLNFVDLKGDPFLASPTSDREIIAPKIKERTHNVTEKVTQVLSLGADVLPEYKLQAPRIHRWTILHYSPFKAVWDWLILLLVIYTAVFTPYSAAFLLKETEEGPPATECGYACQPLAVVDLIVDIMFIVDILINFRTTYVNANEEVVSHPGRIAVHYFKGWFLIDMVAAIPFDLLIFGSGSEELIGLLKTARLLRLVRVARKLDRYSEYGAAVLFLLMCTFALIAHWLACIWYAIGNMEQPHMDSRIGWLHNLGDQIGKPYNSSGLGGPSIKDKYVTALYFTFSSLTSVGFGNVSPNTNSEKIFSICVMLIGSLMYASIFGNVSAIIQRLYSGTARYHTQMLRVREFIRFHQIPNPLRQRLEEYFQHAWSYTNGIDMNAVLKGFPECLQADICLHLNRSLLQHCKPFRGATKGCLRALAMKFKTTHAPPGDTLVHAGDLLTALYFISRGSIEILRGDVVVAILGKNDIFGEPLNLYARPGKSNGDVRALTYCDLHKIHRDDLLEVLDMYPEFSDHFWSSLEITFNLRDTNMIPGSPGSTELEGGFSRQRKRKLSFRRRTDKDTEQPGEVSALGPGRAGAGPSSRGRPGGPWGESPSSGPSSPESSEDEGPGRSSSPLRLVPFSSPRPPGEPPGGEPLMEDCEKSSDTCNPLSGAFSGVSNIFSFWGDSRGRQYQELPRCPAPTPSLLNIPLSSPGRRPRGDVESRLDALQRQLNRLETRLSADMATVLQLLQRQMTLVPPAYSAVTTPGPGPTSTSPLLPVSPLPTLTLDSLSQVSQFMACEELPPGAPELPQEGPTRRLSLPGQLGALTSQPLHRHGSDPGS
Turning to `O=C(O)c1cnn(-c2nc(-c3ccc(Cl)c(Cl)c3)cs2)c1C(F)(F)F`, the “hERG current change (%, negative = inhibition) at 10uM” value is recorded as 18%.

Consider `CCC(=O)Nc1nc(C)c(C(=O)Nc2cccc(Cl)c2)s1`, for which the “hERG current change (%, negative = inhibition) at 10uM” value is recorded as 8.17%.

Regarding `COc1ccc(N(CC(=O)Nc2cccnc2)S(=O)(=O)c2ccccc2)cc1OC`, the “hERG current change (%, negative = inhibition) at 10uM” value is reported as -9.62%.

For `COc1ccccc1-c1nc(SCc2ccccn2)n[nH]1`, the “hERG current change (%, negative = inhibition) at 10uM” value is listed as -4.23%.

With `C=CCn1c(P(C)(=O)[O-])nc2ccccc21.[K+]`, the “hERG current change (%, negative = inhibition) at 10uM” value is 7.28%.

As for `CC1(C)CSC(=NCc2ccccc2)N1`, the “hERG current change (%, negative = inhibition) at 10uM” value stood at 13.5%.

Turning to `COc1ccc(C2C(C#N)=C(N)Oc3c2oc(CO)cc3=O)cc1` (stereo not drawn), the “hERG current change (%, negative = inhibition) at 10uM” value is given as -0.696%.

As to `COc1ccc(S(=O)(=O)N2CCOC23CCN(S(=O)(=O)c2cc(C)ccc2C)CC3)cc1`, the “hERG current change (%, negative = inhibition) at 10uM” value stood at 8.89%.

Consider `CCn1cc(C(=O)NCC2CCCO2)c(=O)c2cc(S(=O)(=O)N(C)C3CCCCC3)ccc21` (stereo not drawn), for which the “hERG current change (%, negative = inhibition) at 10uM” value was -31.6%.

On to `CN(CC(=O)N1CCc2ccccc21)S(=O)(=O)c1cccc2cccnc12`, for which the “hERG current change (%, negative = inhibition) at 10uM” value was -8.39%.

As for `Cc1onc(-c2ccccc2)c1C(=O)Nc1ccon1`, the “hERG current change (%, negative = inhibition) at 10uM” value is -2.65%.

Take `CCCCCSc1nnc(-c2ccccc2NC(C)=O)c(=O)[nH]1`: the “hERG current change (%, negative = inhibition) at 10uM” value is reported as 22.5%.

Turning to `COc1ccc(/C=N/Nc2nnc(C)n2N)cc1OC(C)=O.Cl`, the “hERG current change (%, negative = inhibition) at 10uM” value was determined as 14.3%.

Consider `COc1ccccc1N1CCN(c2ccc([N+](=O)[O-])cc2Cl)CC1`, for which the “hERG current change (%, negative = inhibition) at 10uM” value is on record as 10.5%.

As for `CC[C@H](C)[C@H](NC(N)=O)C(=O)Nc1ccc(NC(C)=O)cc1`, the “hERG current change (%, negative = inhibition) at 10uM” value is 12.5%.

With `O=C(O)CCn1c(=O)sc2ccccc21`, the “hERG current change (%, negative = inhibition) at 10uM” value came to 7.89%.

Turning to `Cc1ccc(C)c(COc2coc(CN3CCN(C(=O)c4ccco4)CC3)cc2=O)c1`, the “hERG current change (%, negative = inhibition) at 10uM” value is -100%.

As for `COc1cccc(OC)c1C(=O)Nc1ccncc1`, the “hERG current change (%, negative = inhibition) at 10uM” value is recorded as 24.6%.

For the compound `Cc1ccc(OCC(=O)N(Cc2ccccc2)C(C)C)c([N+](=O)[O-])n1`, the “hERG current change (%, negative = inhibition) at 10uM” value is recorded as -21%.

Turning to `CNc1ccccc(-c2ccc3cc4c(cc3n2)OCO4)c1=O`, the “hERG current change (%, negative = inhibition) at 10uM” value is on record as -13.4%.

`COc1ccc(S(=O)(=O)NC(CC(=O)NCCc2ccc(OC)c(OC)c2)C(C)C)cc1` (stereo not drawn): the “hERG current change (%, negative = inhibition) at 10uM” value is reported as -0.875%.

Regarding `CCCCCCNc1nc(Cl)nc(NC(C)(C)CO)n1`, the “hERG current change (%, negative = inhibition) at 10uM” value turned out to be 15.6%.

As for `CC1CC2=C(C(=O)O1)C(c1ccc(Cl)cc1)Nc1ccccc1N2` (stereo not drawn), the “hERG current change (%, negative = inhibition) at 10uM” value was -6.21%.

Take `COc1cc(C(=O)OCCN2CCOCC2)cc(OC)c1OC`: the “hERG current change (%, negative = inhibition) at 10uM” value was -5.95%.

Regarding `O=C(Nc1ccccn1)N1CCOCC1`, the “hERG current change (%, negative = inhibition) at 10uM” value was 15.1%.

Take `Cc1cccc(N(Cc2ccccc2)C(=O)C2CCN(C(=O)c3ccccc3C)CC2)c1`: the “hERG current change (%, negative = inhibition) at 10uM” value is on record as -35.2%.

As to `COc1ccc(C2OCC3(CO2)SC(=O)NC3=O)cc1` (stereo not drawn), the “hERG current change (%, negative = inhibition) at 10uM” value came to 1.92%.

On to `COc1ccccc1-c1n[nH]c2c1[C@H](C)CC[C@H]2C(C)C`, for which the “hERG current change (%, negative = inhibition) at 10uM” value is given as 9.34%.

Take `O=C1c2nc3cc(-c4ccco4)[nH]n3c(=O)c2CN1Cc1ccccc1`: the “hERG current change (%, negative = inhibition) at 10uM” value is 10.7%.

`COC(=O)CSc1nnc(C)n1-c1cccc(C#N)c1`: the “hERG current change (%, negative = inhibition) at 10uM” value is recorded as -0.894%.

Regarding `Cc1cc(=O)[nH]c(SCC(=O)Nc2ncc(S(=O)(=O)c3ccc([N+](=O)[O-])cc3)s2)n1`, the “hERG current change (%, negative = inhibition) at 10uM” value is 3.53%.

In the case of `CCOc1ccccc1/C=N/Nc1ccnc(=O)[nH]1`, the “hERG current change (%, negative = inhibition) at 10uM” value turned out to be 21%.

With `CC(C)Cn1nc(C(=O)Nc2cccc(S(=O)(=O)N3CCCC3)c2)c2ccccc2c1=O`, the “hERG current change (%, negative = inhibition) at 10uM” value is given as -7.01%.

Regarding `O=C(c1cc(-c2ccncc2)nc2ccc(Cl)cc12)N1CCN(Cc2ccc3c(c2)OCO3)CC1`, the “hERG current change (%, negative = inhibition) at 10uM” value was -46.7%.

In the case of `CCCn1cc(S(=O)(=O)c2ccccc2)c(=O)c2cc(OC)c(OC)cc21`, the “hERG current change (%, negative = inhibition) at 10uM” value is given as 7.08%.

`CC1(C)SC(=S)N(NC(=O)Nc2cccc3ccccc23)C1N(O)C(=O)Nc1ccccc1` (stereo not drawn): the “hERG current change (%, negative = inhibition) at 10uM” value was 5.77%.

As for `Cc1nc2ncnn2c(N2CCN(C(=O)c3cccc(F)c3)CC2)c1Cc1ccccc1`, the “hERG current change (%, negative = inhibition) at 10uM” value is -45.6%.

Turning to `CN1CCN(C(=O)c2ccc(COc3ccc(C(C)(C)C)cc3)o2)CC1`, the “hERG current change (%, negative = inhibition) at 10uM” value is -37.8%.

Take `CC(=O)OC(C(=O)n1nc(C)cc1C)c1ccccc1` (stereo not drawn): the “hERG current change (%, negative = inhibition) at 10uM” value was found to be 9.08%.

Turning to `CC(=O)Nc1ccc(S(=O)(=O)NCCC(=O)OCc2csc(CC(=O)Nc3ccccc3C)n2)cc1`, the “hERG current change (%, negative = inhibition) at 10uM” value stood at 10.6%.

Consider `CCc1cccc(C)c1NC(=O)c1cccc(N(C)C)c1`, for which the “hERG current change (%, negative = inhibition) at 10uM” value is recorded as -1.96%.

Regarding `CCc1ccc(NC(=O)CNCc2ccc(OC)c(OC)c2)cc1.O=C(O)C(=O)O`, the “hERG current change (%, negative = inhibition) at 10uM” value is reported as -21.3%.

Turning to `Cc1ccc(NC(=O)c2cn(CCC#N)nc2-c2cccs2)c([N+](=O)[O-])c1`, the “hERG current change (%, negative = inhibition) at 10uM” value is listed as -8.76%.

On to `O=C(NNC(=S)Nc1ccccc1)NNC(=S)Nc1ccccc1`, for which the “hERG current change (%, negative = inhibition) at 10uM” value was 25.3%.

With `COc1ccc(N2C(=O)C(C)C(Cc3ccc(C)cc3)C2=O)cc1` (stereo not drawn), the “hERG current change (%, negative = inhibition) at 10uM” value is on record as 12.5%.

Consider `Fc1cccc(F)c1CN1CCN(c2ccc(Cl)cc2)CC1`, for which the “hERG current change (%, negative = inhibition) at 10uM” value came to 13%.

For the compound `O=C(CSc1ccc(-c2ccc(F)cc2)nn1)N1CCCc2ccccc21`, the “hERG current change (%, negative = inhibition) at 10uM” value is listed as -27.4%.

In the case of `COc1cccc(CC(Cc2nc3ccccc3[nH]2)c2nc3ccccc3[nH]2)c1` (stereo not drawn), the “hERG current change (%, negative = inhibition) at 10uM” value is given as -33%.

Regarding `CC(CNc1nc2ccc(Cl)cc2n2cnnc12)c1ccccc1` (stereo not drawn), the “hERG current change (%, negative = inhibition) at 10uM” value is reported as 18.9%.

As to `CCC1CCCCN1C(=O)COC(=O)c1ccc(Br)o1` (stereo not drawn), the “hERG current change (%, negative = inhibition) at 10uM” value was found to be 12.3%.

Regarding `O=C(/C=C/NCc1ccc(F)cc1)c1ccccc1`, the “hERG current change (%, negative = inhibition) at 10uM” value is reported as -4.3%.

As for `COC(=O)COc1ccc(S(=O)(=O)N2CCCCCC2)cc1C`, the “hERG current change (%, negative = inhibition) at 10uM” value was -15.9%.

Take `CCCCCOc1ccc(C(=O)NCC2(c3ccccc3)CCOCC2)cc1`: the “hERG current change (%, negative = inhibition) at 10uM” value was -24.2%.

For `CCOC(=O)c1c(C)[nH]c(C)c1S(=O)(=O)N1c2ccccc2CC1C` (stereo not drawn), the “hERG current change (%, negative = inhibition) at 10uM” value is reported as -0.0566%.

For `CCCCNc1nnc(SCC(=O)N2CCN(S(=O)(=O)c3ccc4ccccc4c3)CC2)s1`, the “hERG current change (%, negative = inhibition) at 10uM” value is reported as -6.38%.

With `Cc1cc(NC(=O)COC(=O)c2c(Cl)cccc2Cl)no1`, the “hERG current change (%, negative = inhibition) at 10uM” value was -7.86%.

Consider `CCOc1ccc(N(CC(=O)Nc2cccc(Cl)c2)S(=O)(=O)c2c(C)noc2C)cc1`, for which the “hERG current change (%, negative = inhibition) at 10uM” value was 3.11%.
